In PubChem BioAssay AID463173 (ICCB-Longwood Screening Facility, Harvard Medical School, 2010):
In all, about 52,000 compounds went through this assay and about 4,300 (8.3%) were called active. Rule as the data show it: active = survival mostly below about 52% (no sharp cut-off); inactive = mostly above about 56%. The list shows a part of the results.

Tested on: DeltatarO mutant
Experiment: growth inhibition of S. aureus wild type versus tarO mutant, primary screen, teichoic acid synthesis inhibitors, RN4220, OD600 (AID 463173)
Details: OD600, 18 h, hits give low values, screened at 18.75 µg/mL (by protocol)

SMILES | survival
O=S(=O)(c1ccc(-n2cnnn2)cc1)N(Cc1ccccn1)C1CC1 | inactive: 97%
COc1cc(NC(=O)CSc2ccc(-c3sc(-c4ccccc4)nc3C)nn2)cc(OC)c1 | active: 19%
CCCc1cc(=O)[nH]c2nnc(SCCC(C)C)n12 | inactive: 90%
COC(=O)c1c(NC(=O)COc2ccc(OC)cc2)sc2c1CCC(C)C2 (stereo unspecified) | inactive: 66%
CCCNC(=O)c1c2c(nc3ccccc13)C(=O)N(C1CCCCC1)C2 | inactive: 75%
Cc1cccn2c(=O)c(/C=C(\C#N)c3nc4ccccc4n3C)c(Oc3ccc(Cl)cc3)nc12 | inactive: 65%
CCCc1cc(=O)[nH]c2nnc(SCC(=O)Nc3cccc(C)c3)n12 | inactive: 80%
O=C(NCC1CCCO1)Nc1ccccc1 (stereo unspecified) | inactive: 90%
COc1cccc(-c2cc(C(=O)Nc3ccc(F)cc3)[nH]n2)c1 | inactive: 73%
COc1ccc(OC)c(NC(=O)[C@H](Cc2ccccc2)N2Cc3ccccc3C2=O)c1 | inactive: 108%
O=C(CC1C(=O)N(c2ccccc2)C(=O)N1CCc1cccs1)Nc1ccc(Cl)cc1 (stereo unspecified) | inactive: 55%
Cc1c(C(=O)Nc2cccc(C(F)(F)F)c2)oc2ccc(S(=O)(=O)N(C)C3CCCCC3)cc12 | inactive: 85%
CCNC(=O)c1ccc(-n2c(-c3ccccc3)cc3c2CCCCC3)cc1 | active: 43%
COc1cccc(CNC(=O)CCc2c(C)nn(-c3ccc(N4CCOCC4)nn3)c2C)c1 | inactive: 100%
COc1ccc(S(=O)(=O)N(C)CC(=O)N2CCCC2)cc1 | inactive: 80%
Nc1nc2n(n1)C(c1cccs1)CC(c1ccc(Cl)cc1Cl)N2 (stereo unspecified) | inactive: 93%
COc1ccc(CC(=O)NC2CCN(CC(=O)Nc3ccc4c(c3)CCC4)CC2)cc1OC | inactive: 96%
CCOC(=O)CNc1ncnc2c1nnn2C | inactive: 49%
CC(=O)Nc1nonc1-c1nnc(SCc2ccc(C)cc2)n1C | inactive: 48%
COc1ccc(OC)c(NC(=O)c2nc(SCc3ccccc3F)ncc2Cl)c1 | inactive: 70%
COc1cccc(NC(=O)C2CCCN2S(=O)(=O)c2ccc3c(c2)n(C)c(=O)c(=O)n3C)c1 (stereo unspecified) | inactive: 87%
CC1C(=O)N2CCCc3cc(S(=O)(=O)Nc4ccc(Br)cc4F)cc1c32 (stereo unspecified) | inactive: 90%
COc1ccc(OC)c(NC(=O)CCN2CCC(C)CC2)c1 | inactive: 79%

SMILES | survival
CC1CCN(S(=O)(=O)c2ccc(S(=O)(=O)NCc3ccccc3)cc2)CC1 | inactive: 67%
CCOc1cc(-c2nnc(SCC(=O)NCc3ccc(C)cc3)nc2-c2ccc(OC)c(OCC)c2)ccc1OC | inactive: 78%
Cc1ccc(OCC(=O)OCc2cc(=O)n3c(C)csc3n2)cc1 | inactive: 86%
Cc1ccccc1NC(=O)N1CCC(CN2CCCC2)CC1 | inactive: 83%
N#CC1=C2SCN(C3CCCCC3)CN2C(=O)CC1c1ccc(F)cc1 (stereo unspecified) | inactive: 87%
CCC(=O)N1CCc2cc(S(=O)(=O)NC(Cc3ccccc3)C(=O)NCc3ccc(F)cc3)ccc21 (stereo unspecified) | inactive: 60%
CCc1cccc(-n2c(=O)c3cccnc3n2CC(=O)Nc2ccccc2C(=O)OC)c1 | inactive: 73%
CCC1CN(C(=O)Nc2cc(OC)cc(OC)c2)c2ccccc2S1 (stereo unspecified) | inactive: 97%
CCOc1ccc(NC(=O)c2ccc3nc(Cc4ccccc4)oc3c2)cc1 | inactive: 103%
Cc1ccc2oc(C(=O)Nc3sc4c(c3C(=O)NCc3ccccc3)CCCC4)cc(=O)c2c1 | inactive: 66%
CCn1cc(C(=O)N2CCN(c3ccccc3OC)CC2)c(=O)c2cc(S(=O)(=O)N3CCC(C)CC3)ccc21 | inactive: 85%
Cc1ccc(-n2ncc3c(N4CCCCCC4)ncnc32)cc1C | inactive: 86%
COc1ccccc1CNC(=O)c1ccc2c(c1)N(Cc1ccc(C)cc1)CCS2 | inactive: 83%
COc1ccc(CSCCN)cc1Cl | inactive: 74%
CC(C)N(C(=O)Cn1nnc2ccccc21)C(C(=O)NCc1ccco1)c1ccccc1 (stereo unspecified) | inactive: 95%
CCc1ccccc1NC(=O)CN1C(=O)COc2ccc(S(=O)(=O)N3CCCCCC3)cc21 | inactive: 88%
CCN(CC)S(=O)(=O)c1ccc2c(c1)N(CC(=O)NCC(C)c1ccccc1)C(=O)CO2 (stereo unspecified) | inactive: 82%
O=S1(=O)CCC(NS(=O)(=O)c2ccccc2)C1 (stereo unspecified) | inactive: 96%
CCN(CC)C(=O)C1=CC(c2ccc3c(c2)OCO3)=NS(=O)(=O)N1C | inactive: 86%
Cc1ccc(NC(=O)CSc2nc3ccc(NC(=O)CCc4ccccc4)cc3s2)c(C)c1 | inactive: 79%
O=C(CCCCn1c(=O)c2ccccc2n(Cc2ccccc2F)c1=O)NCc1ccccc1Cl | active: 97%
O=S(=O)(NCCc1nnc2ccc(SCc3c(F)cccc3Cl)nn12)c1ccccc1 | inactive: 58%
CCC(Oc1ccccc1)C(=O)Nc1ccc(OCc2cc(=O)n3ccc(C)cc3n2)cc1 (stereo unspecified) | inactive: 91%

SMILES | survival
Cc1oc(-c2ccccc2F)nc1CSCC(=O)NCCc1ccccc1 | inactive: 94%
CNS(=O)(=O)c1cn(CC(=O)N2CCN(c3cccc(Cl)c3)CC2)cc1S(=O)(=O)NC | inactive: 69%
COc1ccc(NC(=O)C2=C(C)Nc3ncnn3C2c2ccccn2)cc1 (stereo unspecified) | inactive: 81%
CCCCn1cc(S(=O)(=O)c2ccccc2)c(=O)c2cc(F)c(N3CCC(C)CC3)cc21 | inactive: 68%
CCOC(=O)c1cnc2c(C)cc(C)cc2c1Nc1ccc(OCc2ccccc2)cc1 | active: 17%
NC(=O)CSc1n[nH]c(-c2ccco2)n1 | inactive: 64%
O=C(CN1CCN(CC(=O)Nc2ccccc2F)CC1)Nc1ccc(Cl)c(C(F)(F)F)c1 | inactive: 83%
CCOC(=O)C1=C(C(F)(F)F)Nc2ncnn2C1c1cccc(OC)c1OC (stereo unspecified) | inactive: 82%
CC(C)CCNC(=O)c1cc(Sc2ccc(F)cc2F)nc2ccccc12 | inactive: 64%
CCC(=O)N(C)c1nnc(-c2cccc(C)c2)s1 | inactive: 76%
CCCCOc1ccc(CN2C(=O)C(=O)c3cc(C)ccc32)cc1OC | inactive: 122%
COc1ccccc1CNc1ccc(-c2nc(-c3cccc(C)c3)no2)cc1[N+](=O)[O-] | inactive: 86%
CCN(CC)C(=O)c1sc2c(c1C)c(=O)n(CCc1ccccc1)c(=O)n2Cc1cccc(Cl)c1 | inactive: 102%
CCOc1ccccc1N1CC(c2nc3ccccc3n2CCCCOc2cc(C)ccc2C)CC1=O (stereo unspecified) | active: 47%
CN(C)c1ccc(CNC(=O)c2ccc3c(c2)N(C)C(=O)C2CCCCN32)cc1 (stereo unspecified) | inactive: 117%
O=C(c1cnc(N2CCOCC2)c2ccccc12)N1CCN(c2ccccc2F)CC1 | inactive: 71%
O=C(NC1CCCC1)C1CCCN1C(=O)Nc1ccccc1 (stereo unspecified) | inactive: 89%
CCOc1ccc(CNC(=O)CCc2cn(CC)c3ccccc23)cc1 | inactive: 76%
COc1cccc(C(=O)Nc2ccc3c(c2)COC3=O)c1 | inactive: 77%
CCNc1nc(N2CCCC2)nc(N2CCCC2)n1 | inactive: 100%
CCc1ccc(NC(=O)C2CCN(S(=O)(=O)c3c(C)noc3/C=C\c3ccc(OC)cc3)CC2)cc1 | inactive: 66%
COc1cc(C(=O)Nc2ccc(OCc3cc(=O)n4cccc(C)c4n3)cc2)cc(OC)c1OC | inactive: 128%
O=C(NCCc1ccccc1)c1ccc(CSc2nc3ccncc3n2Cc2cccc(F)c2)cc1 | inactive: 109%

SMILES | survival
CCC1=C(c2ccc(C)cc2)S(=O)(=O)N=C1N1CCC(C(=O)N2CCCCC2)CC1 | inactive: 92%
CCS(=O)(=O)NCCc1csc2nc(-c3ccc(C)cc3)nn12 | inactive: 83%
O=C(COCc1cc(-c2cccs2)on1)Nc1cccc(O)c1 | active: 0%
Cc1ccc(C)c(NC(=O)Nc2csc3c2CCCC3)c1 | inactive: 75%
CCOc1ccc2nc(N3CCCC(C(=O)NCc4ccc(C)cc4)C3)sc2c1 (stereo unspecified) | inactive: 71%
COc1ccc2sc(N)nc2c1 | inactive: 93%
COc1ccccc1NC(=O)Cn1c(=O)n(Cc2nc(-c3ccccc3)no2)c(=O)c2ccccc21 | inactive: 96%
COc1ccc(-c2nn(C)c3sc(C(=O)N4CCN(c5cccc(Cl)c5)CC4)cc23)cc1OC | active: 54%
CC1CCc2c(sc(NC(=O)c3cc(-c4ccc(Br)cc4)on3)c2C(N)=O)C1 (stereo unspecified) | inactive: 173%
Cc1c(CNCCCc2ccccc2)c(C(=O)O)c(C)n1Cc1cccc(Cl)c1 | inactive: 63%
COc1ccc(NC(=O)C2CCN(S(=O)(=O)c3c(C)noc3/C=C/c3ccc(C)cc3)CC2)cc1Cl | inactive: 82%
CCNc1nc(NC(C)(C)C)nc(N2CCCCC2)n1 | inactive: 98%
Cc1ccc(-n2cnc3cc(C(=O)NC4CCCCCC4)ccc32)cc1Cl | inactive: 131%
COC(=O)c1c(C)sc(-c2c(-c3ccc4c(c3)OCCO4)[nH]c3c2c(=O)[nH]c(=O)n3C)c1O | active: 37%
O=C1OCc2cc(-n3[nH]nnc3=S)ccc21 | inactive: 86%
Cc1ccc(C)c(N(C)S(=O)(=O)c2ccc3[nH]cc(C(=O)NC4CCCC4)c(=O)c3c2)c1 | inactive: 98%
CCOc1ccc(S(=O)(=O)NCC(c2cccs2)S(=O)(=O)c2ccc(C)cc2)cc1 (stereo unspecified) | inactive: 107%
CCN1CCN(C(=O)c2c(C)nn(-c3ccc(F)cc3)c2-n2cccc2)CC1 | inactive: 82%
CC(C)(C)NC(=O)CCSc1nc(-c2ccc3c(c2)OCO3)cc(C(F)(F)F)n1 | active: 15%
Cc1ccc(NS(=O)(=O)c2ccc3[nH]c4c(c3c2)CCCCC4)cc1 | inactive: 83%
COc1ccc(S(=O)(=O)c2cn(C)c3cc(N4CCOCC4)c(F)cc3c2=O)cc1 | inactive: 96%
CCc1ccc(OCC(=O)Nc2ccc3oc(-c4ccc(OC)cc4)nc3c2)cc1 | inactive: 62%
